{
  "source": "PubChem BioAssay AID743279",
  "about": "(National Center for Advancing Translational Sciences (NCATS), 2014)",
  "note": "Out of some 360,000 compounds screened, about 17,000 (4.7%) were called active. The inconclusive results got no clear call from the source; some entries with a clear call stand among them for comparison. Rule as the data show it: active = activity change below about -50%; inconclusive = mostly about -30% to -49%; inactive = weaker than that. % is scaled to controls: 0 for no effect and ±100 for the full control effect.",
  "data": [
    {"assay": "qHTS for Inhibitors of Inflammasome Signaling: IL-1-beta AlphaLISA Primary Screen", "conditions": "THP-1 LPS/ATP IL-1B secretion, 16 h; at 57.5 µM, stronger effect = lower value", "summary_of_the_method": "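Secreted IL-1B measured by AlphaLISA bead assay after 16 h compound exposure of THP-1 cells; compounds (final up to 57.5 uM) added 1 h before LPS (250 ng/mL) and ATP (1.25 mM) stimulation; lower signal means less secretion.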", "values": [
      {"smiles": "O=S(=O)(c1ccc(Cl)c(Cl)c1)c1snnc1-c1ccccc1", "activity change": "active: -116%"},
      {"smiles": "COc1ccc(NCc2nc3ccccc3n2CCOc2ccc(C)cc2)cc1", "activity change": "active: -95.1%"},
      {"smiles": "COc1ccc(C(=O)/C=C/C(=O)N(Cc2ccc3c(c2)OCO3)C(C(=O)NC2CCCCC2)c2ccncc2)c(O)c1", "note": "(centres undefined)", "activity change": "inconclusive: -40.4%"},
      {"smiles": "Cc1ccsc1CN(C)CC(=O)N(C)CC(=O)Nc1c(Cl)cccc1Cl", "activity change": "inactive: -4.73%"},
      {"smiles": "CCN(CC)c1ccc(S(=O)(=O)N2CCOCC2)cc1NC(=O)COC(=O)/C=C/c1ccc(C)o1", "activity change": "inconclusive: -34.9%"},
      {"smiles": "CC1CCN(C(=O)Nc2cccc(NC(=O)N3CCC(C)CC3)c2)CC1", "activity change": "inconclusive: -37.2%"},
      {"smiles": "CCN(CC)CCOC(=O)c1ccc(NC(=O)CNC(=O)c2ccccc2)cc1", "activity change": "inactive: 7.44%"},
      {"smiles": "CCc1ccc(-c2csc3ncn(CC)c(=O)c23)cc1", "activity change": "inactive: -24.2%"},
      {"smiles": "Cc1nc2ccc(C(=O)NCCCn3ccnc3)cn2c1N(C)CC1CCCCC1", "activity change": "inconclusive: -36.5%"},
      {"smiles": "COc1ccc(S(=O)(=O)NC2CC(C)(C)NC(C)(C)C2)c2ccccc12", "activity change": "inactive: -7.42%"},
      {"smiles": "COc1ccc(NC(=O)Nc2cccc(C)n2)c(OC)c1", "activity change": "inconclusive: -33.3%"},
      {"smiles": "Cc1ccccc1C1CC(c2ccc(Br)cc2)Nc2nc(N)nn21", "note": "(centres undefined)", "activity change": "inconclusive: -36%"},
      {"smiles": "COCC1CCN(C(=O)C2CCN(c3nc(-c4ccccc4)nc4c3CCC4)CC2)C1", "note": "(centres undefined)", "activity change": "inconclusive: -43.6%"},
      {"smiles": "CCOC(=O)c1c(NC(=O)C2c3ccccc3Oc3ccccc32)sc(C(C)=O)c1C", "activity change": "inconclusive: -31.4%"},
      {"smiles": "O=C(NCC1CCCO1)C(c1cccs1)N(Cc1cccs1)C(=O)c1ccc(-c2ccccc2)[nH]1", "note": "(centres undefined)", "activity change": "inconclusive: -36.9%"},
      {"smiles": "O=C(Nc1nnc(C2CC2)s1)c1cc(S(=O)(=O)N2CCCCC2)ccc1N1CCOCC1", "activity change": "inconclusive: -42.8%"},
      {"smiles": "COc1ccc(S(=O)(=O)N2CCN=C2SCc2cccc(C)c2)cc1", "activity change": "inconclusive: -41.7%"},
      {"smiles": "CN(C)CCCn1c2c(c(SCC(=O)Nc3ccc4c(c3)OCO4)nc1=O)CCCC2", "activity change": "inconclusive: -42.1%"},
      {"smiles": "CCOC(=O)C1=C(CC)Nc2ccccc2N=C1NC(=O)c1ccc(OC)c(S(=O)(=O)N2CCCCC2C)c1", "note": "(centres undefined)", "activity change": "inconclusive: -31.4%"},
      {"smiles": "COc1ccc(C2C(C(=O)N3CCC(C(N)=O)CC3)CC(=O)N2c2ccc(OC)cc2)cc1", "note": "(centres undefined)", "activity change": "inactive: -13.8%"},
      {"smiles": "COc1cc(-c2nnc3sc(-c4cccs4)nn23)cc(OC)c1OC", "activity change": "inactive: 4.96%"},
      {"smiles": "O=C(c1ccc2c(c1)OCO2)N1CCC2(CC1)Oc1ccc(Cl)cc1C(=O)C21CC(c2cccnc2)=NO1", "note": "(centres undefined)", "activity change": "inconclusive: -47.1%"},
      {"smiles": "COc1ccc(O)c(-c2nc(N)nc(N)n2)c1", "activity change": "active: -97.7%"},
      {"smiles": "C[C@@H]1CN([C@@H](C)CO)C(=O)c2cc(C#CC3CCCCC3)cnc2O[C@@H]1CN(C)S(=O)(=O)c1ccc(F)cc1", "activity change": "active: -52.7%"},
      {"smiles": "Cc1ccc(S(=O)(=O)Cn2nnnc2C(C(C)C)N2CCN(Cc3ccco3)CC2)cc1", "note": "(centres undefined)", "activity change": "inconclusive: -31.5%"},
      {"smiles": "COc1cc(/C=N/Nc2nc3ccccc3s2)ccc1O", "activity change": "inconclusive: -43.4%"},
      {"smiles": "C=CCn1cc(C(=O)NCc2ccco2)c(=O)c2cc(S(=O)(=O)N3CCCCCC3)ccc21", "activity change": "inconclusive: -36.3%"},
      {"smiles": "Cc1cccc(-n2ncc3c(N4CCCc5ccccc54)ncnc32)c1", "activity change": "inactive: 13.4%"},
      {"smiles": "O=C1c2cccnc2C(=O)N1CO", "activity change": "inactive: -18.3%"},
      {"smiles": "Cc1ccc(Cn2c(=N)n(CC(=O)c3ccccc3)c3ccccc32)cc1", "activity change": "active: -82.4%"},
      {"smiles": "COc1ccc(C2=CC(=O)C[C@H](c3ccc(F)cc3)C2)c(F)c1F", "activity change": "inconclusive: -43.2%"},
      {"smiles": "C(=C\\c1ccccc1)/CN1CCN(c2ncnc3c2oc2ccccc23)CC1", "activity change": "inactive: -23.2%"},
      {"smiles": "COc1ccc(NC(=O)Cn2c(C(C)C)nc(C)cc2=O)cc1Cl", "activity change": "inactive: 3.22%"},
      {"smiles": "NC(=O)c1cc(-c2csc(-c3cccnc3)n2)ccc1O", "activity change": "inconclusive: -31.3%"},
      {"smiles": "CCCN1CCN(CCCNC(=S)Nc2ccc3nc(N4CCN(CC)CC4)cc(C)c3c2)CC1", "activity change": "inactive: -12.6%"},
      {"smiles": "Cc1ccc(NC(=O)c2sccc2C)cc1[N+](=O)[O-]", "activity change": "inconclusive: -49.9%"},
      {"smiles": "COC(=O)c1nnn(CC(=O)Nc2cc(Cl)ccc2C)c1C(=O)OC", "activity change": "inconclusive: -30.6%"},
      {"smiles": "Cc1cc(C(=O)N/N=C/C=C/c2ccccc2)c(C)o1", "activity change": "inactive: -23.7%"},
      {"smiles": "Cc1cccc(C)c1OCc1cc(C(=O)N2CCN(c3ccc(F)cc3)CC2)no1", "activity change": "active: -50.9%"},
      {"smiles": "CCc1cc2cc3c(cc2nc1SCC(=O)N1CCN(C(=O)c2ccco2)CC1)OCO3", "activity change": "inconclusive: -46.2%"},
      {"smiles": "O=C1/C(=C/c2cccnc2)SC(=S)N1c1ccc(O)cc1", "activity change": "active: -99%"},
      {"smiles": "Cc1ccc(C)c(S(=O)(=O)N2CCN(C(=O)CCC(=O)NCc3ccc(Cl)cc3Cl)CC2)c1", "activity change": "inconclusive: -36%"},
      {"smiles": "O=C(c1ccc(S(=O)(=O)c2cccc(Cl)c2)c([N+](=O)[O-])c1)N1CCN(Cc2ccccc2)CC1", "activity change": "active: -98.9%"},
      {"smiles": "COc1ccc(OC)c(N/C(C)=C/C(=O)c2ccc(Br)cc2)c1", "activity change": "inconclusive: -43.2%"},
      {"smiles": "CCc1nc2c(OCc3cc(Cl)cc(Cl)c3)cccn2c1N(C=O)Cc1ccccc1", "activity change": "inconclusive: -37.9%"},
      {"smiles": "c1ccc(Cc2nn3c(C4COc5ccccc5O4)nnc3s2)cc1", "note": "(centres undefined)", "activity change": "inconclusive: -35.5%"},
      {"smiles": "O=C(NCc1ccc2c(c1)OCO2)C1CCN(Cc2cnn(-c3ccccc3)c2-n2cccc2)CC1", "activity change": "inconclusive: -36.6%"},
      {"smiles": "CCOc1ccccc1CNC(=O)C1CCN(c2nc3ccccc3o2)CC1", "activity change": "inconclusive: -36%"},
      {"smiles": "CCc1ccc(C(C#N)=CC=Cc2ccccc2)cc1", "activity change": "inconclusive: -32.9%"},
      {"smiles": "O=C(Nc1ccccc1)Nc1ncc(C(F)(F)F)cc1Cl", "activity change": "inconclusive: -40.3%"},
      {"smiles": "N#Cc1c(-n2cccc2)cccc1-n1cccc1", "activity change": "inconclusive: -46%"},
      {"smiles": "Cc1cccn2c(=O)c3cc(C(=O)NCCN4CCOCC4)c(=N)n(Cc4cccnc4)c3nc12", "activity change": "inconclusive: -43.9%"},
      {"smiles": "c1csc(-c2nnc(NC3CCCCC3)c3ccccc23)c1", "activity change": "active: -92%"},
      {"smiles": "COc1cc([N+](=O)[O-])cc(/C=N/NC(=O)c2cncc(Br)c2)c1O", "activity change": "inactive: 73.8%"}
    ]}
  ]
}
